{"source": "the supplement of paper PMC10126150", "note": "Sequences with one replicate were seen in a single cluster, so their values are uncertain.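 Also: ATP exposure 15 min at 22 °C before imaging.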", "data": [{"test_system": "ATP", "assay": "switch fluorescence ratio, 500 uM ATP over buffer (Cy3 cluster intensity, sum of 5 cycles each) (fold (ratio)); higher = stronger signal-on switching upon ATP binding; sequences stand for … in TCGTCGGCAGCGTCAGATGTGTATAAGAGACAGTTTTTTTTTTTTTTTTTTTTTTTTT…TC", "details": "aptamer strand: ATP DNA aptamer (quencher-CACCTGGGGGAGTATTGCGGAGGAAGG + anchor), 100 nM annealed; ATP concentration: 500 uM; one replicate", "outline": "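Per cluster, summed Cy3 intensity from the target cycles was divided by that from the buffer cycles to give the fluorescence ratio, then averaged per switch-domain sequence. Clusters outside 100-1000 RFU were excluded. The Cy3-labelled switching-strand clusters, on a modified Illumina MiSeq flow-cell, were annealed to 100 nM quencher-labelled ATP aptamer and imaged in selection buffer, then after 15 min with 500 uM ATP at 22 °C, for five cycles with NaOH stripping and re-annealing between them.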", "values": [{"sequence": "TAGTTTGAGT", "switch fluorescence ratio": 1.03}, {"sequence": "TATAAACTCC", "switch fluorescence ratio": 1.13}, {"sequence": "TATAACTCCC", "switch fluorescence ratio": 1.21}, {"sequence": "TATAAGACCG", "switch fluorescence ratio": 1.05}, {"sequence": "TATAAGTCAT", "switch fluorescence ratio": 1}, {"sequence": "TATAATCAGG", "switch fluorescence ratio": 1.02}, {"sequence": "TATAATGGA", "switch fluorescence ratio": 0.993}, {"sequence": "TATAATTCGA", "switch fluorescence ratio": 0.97}, {"sequence": "TATACAACTG", "switch fluorescence ratio": 0.982}, {"sequence": "TATACCAGTA", "switch fluorescence ratio": 0.992}, {"sequence": "TATACCGCGG", "switch fluorescence ratio": 0.928}, {"sequence": "TATACCGGCA", "switch fluorescence ratio": 1.04}, {"sequence": "TATACCGTAG", "switch fluorescence ratio": 1.16}, {"sequence": "TATACGTACT", "switch fluorescence ratio": 1.8}, {"sequence": "TATACTTGAA", "switch fluorescence ratio": 0.976}, {"sequence": "TATACTTTTC", "switch fluorescence ratio": 1.04}, {"sequence": "TATAGAGCTG", "switch fluorescence ratio": 0.864}, {"sequence": "TATAGATCCG", "switch fluorescence ratio": 0.975}, {"sequence": "TATAGCAAAG", "switch fluorescence ratio": 1.07}, {"sequence": "TATAGCCATT", "switch fluorescence ratio": 1.01}, {"sequence": "TATAGCTCGA", "switch fluorescence ratio": 1.04}, {"sequence": "TATAGGCGGG", "switch fluorescence ratio": 1}, {"sequence": "TATAGGTG", "switch fluorescence ratio": 1.22}, {"sequence": "TATAGTCAAC", "switch fluorescence ratio": 1.03}, {"sequence": "TATAGTCCTG", "switch fluorescence ratio": 1.01}, {"sequence": "TATAGTCTAG", "switch fluorescence ratio": 0.971}, {"sequence": "TATAGTGGAC", "switch fluorescence ratio": 1.02}, {"sequence": "TATATAAGTA", "switch fluorescence ratio": 1.01}, {"sequence": "TATATAGCGT", "switch fluorescence ratio": 1.01}, {"sequence": "TATATAGCTC", "switch fluorescence ratio": 1.03}, {"sequence": "TATATCAAAT", "switch fluorescence ratio": 0.972}, {"sequence": "TATATCCCGA", "switch fluorescence ratio": 1.07}, {"sequence": "TATATGCGTA", "switch fluorescence ratio": 1.01}, {"sequence": "TATATTCAAA", "switch fluorescence ratio": 1.06}, {"sequence": "TATCACAGAA", "switch fluorescence ratio": 1.02}, {"sequence": "TATCACCTCC", "switch fluorescence ratio": 1.24}, {"sequence": "TATCACCTGC", "switch fluorescence ratio": 1.01}, {"sequence": "TATCAGGATT", "switch fluorescence ratio": 0.978}, {"sequence": "TATCAGGCAC", "switch fluorescence ratio": 0.996}, {"sequence": "TATCCCCAAA", "switch fluorescence ratio": 1.01}, {"sequence": "TATCCGAAGG", "switch fluorescence ratio": 1.01}, {"sequence": "TATCCGGTTG", "switch fluorescence ratio": 1.01}, {"sequence": "TATCCTCATT", "switch fluorescence ratio": 0.989}, {"sequence": "TATCGAAATG", "switch fluorescence ratio": 1.01}, {"sequence": "TATCGAGATT", "switch fluorescence ratio": 0.979}, {"sequence": "TATCGAGTAA", "switch fluorescence ratio": 0.99}, {"sequence": "TATCGATTAG", "switch fluorescence ratio": 0.996}, {"sequence": "TATCGCGGTA", "switch fluorescence ratio": 0.983}, {"sequence": "TATCGGAAGT", "switch fluorescence ratio": 0.959}, {"sequence": "TATCGGGCCT", "switch fluorescence ratio": 1.05}, {"sequence": "TATCGGTATG", "switch fluorescence ratio": 0.99}, {"sequence": "TATCGTGCCC", "switch fluorescence ratio": 0.944}, {"sequence": "TATCGTTTTG", "switch fluorescence ratio": 1.01}, {"sequence": "TATCTCAATC", "switch fluorescence ratio": 1.05}, {"sequence": "TATCTCAGCA", "switch fluorescence ratio": 1.05}, {"sequence": "TATCTGAATC", "switch fluorescence ratio": 0.991}, {"sequence": "TATCTGATAA", "switch fluorescence ratio": 1.01}, {"sequence": "TATCTGGATA", "switch fluorescence ratio": 1.04}, {"sequence": "TATCTTAATT", "switch fluorescence ratio": 1.01}, {"sequence": "TATCTTATAG", "switch fluorescence ratio": 1.02}, {"sequence": "TATCTTGCTC", "switch fluorescence ratio": 1.02}, {"sequence": "TATGAAGGG", "switch fluorescence ratio": 0.963}, {"sequence": "TATGACACAA", "switch fluorescence ratio": 1}, {"sequence": "TATGACGGTG", "switch fluorescence ratio": 0.95}, {"sequence": "TATGACTTTT", "switch fluorescence ratio": 0.99}, {"sequence": "TATGAGACGG", "switch fluorescence ratio": 0.914}, {"sequence": "TATGAGGGTC", "switch fluorescence ratio": 0.977}, {"sequence": "TATGAGTGTA", "switch fluorescence ratio": 1.02}, {"sequence": "TATGATAAC", "switch fluorescence ratio": 1.01}, {"sequence": "TATGATTATA", "switch fluorescence ratio": 1}, {"sequence": "TATGCACATT", "switch fluorescence ratio": 1.01}, {"sequence": "TATGCCGTCA", "switch fluorescence ratio": 0.969}, {"sequence": "TATGCGATTC", "switch fluorescence ratio": 1.07}, {"sequence": "TATGCGTTTC", "switch fluorescence ratio": 1.02}, {"sequence": "TATGCTATCG", "switch fluorescence ratio": 1.08}, {"sequence": "TATGCTCGG", "switch fluorescence ratio": 1.03}, {"sequence": "TATGCTGCGA", "switch fluorescence ratio": 1.04}, {"sequence": "TATGCTTAAG", "switch fluorescence ratio": 1.01}, {"sequence": "TATGGCCATC", "switch fluorescence ratio": 1}, {"sequence": "TATGGCTGA", "switch fluorescence ratio": 1.01}, {"sequence": "TATGGCTGCT", "switch fluorescence ratio": 0.959}, {"sequence": "TATGGCTTGG", "switch fluorescence ratio": 1}, {"sequence": "TATGGGCCCC", "switch fluorescence ratio": 1.06}, {"sequence": "TATGGGGTT", "switch fluorescence ratio": 1}, {"sequence": "TATGTAGCGC", "switch fluorescence ratio": 1.02}, {"sequence": "TATGTGATTA", "switch fluorescence ratio": 1.03}, {"sequence": "TATGTGGTGG", "switch fluorescence ratio": 1.03}, {"sequence": "TATGTGGTT", "switch fluorescence ratio": 1.01}, {"sequence": "TATGTGTTAG", "switch fluorescence ratio": 1.01}, {"sequence": "TATGTTAAGG", "switch fluorescence ratio": 1.01}, {"sequence": "TATGTTATGG", "switch fluorescence ratio": 1.03}, {"sequence": "TATGTTCGAT", "switch fluorescence ratio": 0.991}, {"sequence": "TATGTTTCGC", "switch fluorescence ratio": 1.02}, {"sequence": "TATGTTTTCC", "switch fluorescence ratio": 1}, {"sequence": "TATTAAGC", "switch fluorescence ratio": 1}, {"sequence": "TATTAAGTGT", "switch fluorescence ratio": 0.968}, {"sequence": "TATTACAGTT", "switch fluorescence ratio": 0.965}, {"sequence": "TATTACGAGA", "switch fluorescence ratio": 0.987}, {"sequence": "TATTACTAC", "switch fluorescence ratio": 1.05}, {"sequence": "TATTAGCGCA", "switch fluorescence ratio": 1.02}, {"sequence": "TATTAGCTAG", "switch fluorescence ratio": 1}, {"sequence": "TATTAGGCGG", "switch fluorescence ratio": 1.02}, {"sequence": "TATTAGTGGA", "switch fluorescence ratio": 1}, {"sequence": "TATTAGTGT", "switch fluorescence ratio": 0.978}, {"sequence": "TATTATTAAC", "switch fluorescence ratio": 1.03}, {"sequence": "TATTCAAGGG", "switch fluorescence ratio": 1.03}, {"sequence": "TATTCATAAA", "switch fluorescence ratio": 0.986}, {"sequence": "TATTCATTCA", "switch fluorescence ratio": 0.966}, {"sequence": "TATTCCATAT", "switch fluorescence ratio": 1.83}, {"sequence": "TATTCCTCCG", "switch fluorescence ratio": 1.6}, {"sequence": "TATTCGGATC", "switch fluorescence ratio": 0.976}, {"sequence": "TATTCGGGAA", "switch fluorescence ratio": 0.987}, {"sequence": "TATTCGTGGT", "switch fluorescence ratio": 0.978}, {"sequence": "TATTCTATCC", "switch fluorescence ratio": 1.01}, {"sequence": "TATTCTGGCC", "switch fluorescence ratio": 1.03}, {"sequence": "TATTGATCAA", "switch fluorescence ratio": 0.99}, {"sequence": "TATTGCGCC", "switch fluorescence ratio": 1.01}, {"sequence": "TATTGGAATC", "switch fluorescence ratio": 1}, {"sequence": "TATTGGCATT", "switch fluorescence ratio": 0.971}, {"sequence": "TATTGGGAGC", "switch fluorescence ratio": 0.987}, {"sequence": "TATTGTCACC", "switch fluorescence ratio": 0.989}, {"sequence": "TATTGTGGC", "switch fluorescence ratio": 1}, {"sequence": "TATTGTTTTC", "switch fluorescence ratio": 0.968}, {"sequence": "TATTTAATGT", "switch fluorescence ratio": 0.983}, {"sequence": "TATTTACTT", "switch fluorescence ratio": 0.999}, {"sequence": "TATTTATGT", "switch fluorescence ratio": 1}, {"sequence": "TATTTATT", "switch fluorescence ratio": 1.04}, {"sequence": "TATTTCAGGT", "switch fluorescence ratio": 0.965}, {"sequence": "TATTTCTTAA", "switch fluorescence ratio": 0.988}, {"sequence": "TATTTGCGGA", "switch fluorescence ratio": 0.976}, {"sequence": "TATTTGTGAG", "switch fluorescence ratio": 0.993}, {"sequence": "TATTTTAAC", "switch fluorescence ratio": 1.05}, {"sequence": "TATTTTATGA", "switch fluorescence ratio": 0.977}, {"sequence": "TATTTTGGCA", "switch fluorescence ratio": 0.984}, {"sequence": "TATTTTTAAT", "switch fluorescence ratio": 1}, {"sequence": "TCAAAAGTA", "switch fluorescence ratio": 0.986}, {"sequence": "TCAAAATTAC", "switch fluorescence ratio": 1.3}, {"sequence": "TCAAACTTTG", "switch fluorescence ratio": 0.931}, {"sequence": "TCAAAGTCGC", "switch fluorescence ratio": 1.03}, {"sequence": "TCAAATGGC", "switch fluorescence ratio": 0.975}, {"sequence": "TCAAATTTAT", "switch fluorescence ratio": 1.02}, {"sequence": "TCAACAAGGG", "switch fluorescence ratio": 1.28}, {"sequence": "TCAACGATAA", "switch fluorescence ratio": 1.04}, {"sequence": "TCAACGCCA", "switch fluorescence ratio": 1.5}, {"sequence": "TCAACGTAGT", "switch fluorescence ratio": 0.996}, {"sequence": "TCAAGAAGAC", "switch fluorescence ratio": 1.16}, {"sequence": "TCAAGACCTC", "switch fluorescence ratio": 0.991}, {"sequence": "TCAAGAGAAT", "switch fluorescence ratio": 1.03}, {"sequence": "TCAAGAGAT", "switch fluorescence ratio": 1.06}, {"sequence": "TCAAGCTTCA", "switch fluorescence ratio": 1.27}, {"sequence": "TCAAGGGA", "switch fluorescence ratio": 0.968}, {"sequence": "TCAAGGGCTG", "switch fluorescence ratio": 1.08}, {"sequence": "TCAAGGTAAG", "switch fluorescence ratio": 1.01}, {"sequence": "TCAAGGTTTT", "switch fluorescence ratio": 1.02}]}]}
